Our source for the relative growth values is the supplement of paper PMC9446081.

Molecules are shown by their SMILES. About 220 (0.56%) of roughly 39,000 compounds showed activity. The list shows a part of the results.
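Also: static incubation at 37 °C against the wild-type strain, values averaged over two biological replicates.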

For this assay, the system named is Escherichia coli K-12 BW25113. Briefly: relative growth (OD600 normalised to plate interquartile mean) (fraction); higher = less growth inhibition, active = 0.2 or less. The following applies: 50 µM; LB; incubation time: overnight (16-24 h).
With `C[C@H]1CN([C@@H](C)CO)C(=O)Cc2cc(NC(=O)c3ccncc3)ccc2O[C@H]1CN(C)S(C)(=O)=O`, the relative growth was inactive: 1.01.
As for `CCCCC(CC)COC(=O)C=Cc1ccc(OC)cc1` (stereo not drawn), the relative growth is inactive: 0.948.
As for `C[C@@H]1CCCCO[C@H](CN(C)Cc2ccncc2)[C@H](C)CN([C@H](C)CO)C(=O)c2cc(NC(=O)Nc3ccc4c(c3)OCO4)ccc2O1`, the relative growth is inactive: 0.998.
Regarding `COc1ccc(S(=O)(=O)N(C)C[C@@H]2Oc3ccc(NS(=O)(=O)c4cn(C)cn4)cc3C(=O)N([C@H](C)CO)C[C@@H]2C)cc1`, the relative growth is inactive: 0.966.
In the case of `Cc1noc(C)c1S(=O)(=O)Nc1ccc2c(c1)C(=O)N([C@@H](C)CO)C[C@@H](C)[C@@H](CN(C)C(=O)Nc1ccccc1)O2`, the relative growth is inactive: 1.01.
Under `COC(=O)c1cccc(C(=O)OC)n1` stands inactive: 1.02; under `C[C@@H]1CCCCO[C@H](CN(C)S(=O)(=O)c2ccc(Cl)cc2)[C@@H](C)CN([C@@H](C)CO)C(=O)c2cc(NC(=O)Nc3ccc4c(c3)OCO4)ccc2O1`, inactive: 1.06.
For the molecule `CN1C[C@H](O)COC[C@@H]2O[C@@H](CC(=O)N3CCN(c4ccccc4)CC3)CC[C@H]21`, the relative growth is inactive: 1.03.
Consider `CCCCCCCCc1ccc(-c2ccc(C(=O)O)cc2)cc1`, for which the relative growth is inactive: 1.02.
Take `C=C1c2cccc(O)c2C(=O)C2=C(O)[C@]3(O)C(O)=C(C(N)=O)C(=O)[C@@H](N(C)C)[C@@H]3[C@@H](O)[C@H]12`: the relative growth is inactive: 0.225.
As for `CS(=O)(=O)c1ccccc1CC(=O)O`, the relative growth is inactive: 0.999.
For the molecule `COCCNC(=O)[C@@H]1[C@@H](CO)[C@@H]2Cn3c(ccc(-c4ccccc4F)c3=O)[C@H]1N2S(C)(=O)=O`, the relative growth was inactive: 1.01.
Regarding `CNC(=O)C[C@@H]1C[C@@H]2CN(S(=O)(=O)c3cccnc3)C[C@@H]2O1`, the relative growth was inactive: 1.01.
For `COC[C@H]1CN(C(=O)c2ccccn2)N1`, the relative growth is inactive: 1.
As to `C[C@H]1CN([C@@H](C)CO)C(=O)Cc2cc(NC(=O)Nc3ccc4c(c3)OCO4)ccc2O[C@H]1CN(C)C(=O)Nc1ccc(C(F)(F)F)cc1`, the relative growth was inactive: 1.01.
For the molecule `O=c1/c(=C/c2cccc(Cl)c2)c2cccc3cccc1c32`, the relative growth is inactive: 0.986.
As to `CCCCCCC#C[Si](O[C@H](c1ccccc1)c1cn([C@H](CO)Cc2ccccc2)nn1)(C(C)C)C(C)C`, the relative growth is inactive: 1.
On to `OCC1OC(OC2(CCl)OC(CCl)C(O)C2O)C(O)C(O)C1Cl` (stereo not drawn), for which the relative growth is inactive: 1.03.
Take `C[C@@H]1CN([C@H](C)CO)C(=O)c2cccc(NC(=O)Nc3cccc4ccccc34)c2O[C@@H]1CN(C)Cc1ccc(C(=O)O)cc1`: the relative growth was inactive: 1.01.
As for `COC(=O)c1c2oc(c1C(=O)OC)C(=O)N[C@@H](Cc1ccccc1)Cn1cc(nn1)[C@@H](Cc1ccccc1)NC(=O)N[C@@H](COC(=O)NCCCCCC(=O)NO)CC2`, the relative growth is inactive: 1.01.
Under `C[C@H](CO)N1C[C@H](C)[C@H](CN(C)S(=O)(=O)c2cn(C)cn2)Oc2ccc(NC(=O)Cc3cn(C)c4ccccc34)cc2CC1=O` stands inactive: 1.01; under `C[C@@H]1CN([C@H](C)CO)C(=O)Cc2cc(NC(=O)C3CCCCC3)ccc2O[C@@H]1CN(C)C(=O)Nc1ccc(C(F)(F)F)cc1`, inactive: 0.99.
With `COc1cc2nc(N3CCN(C(=O)C4CCCO4)CC3)nc(N)c2cc1OC.Cl` (stereo not drawn) the figure was inactive: 0.895.
Consider `CC(C)NC(=O)Nc1ccc2c(c1)C(=O)N([C@@H](C)CO)C[C@@H](C)[C@H](CN(C)C(=O)C1CCCCC1)OCCCC[C@H](C)O2`, for which the relative growth was inactive: 0.949.
Consider `C[C@@H]1CCCCO[C@H](CN(C)C(=O)NC2CCCCC2)[C@@H](C)CN([C@@H](C)CO)C(=O)c2cc(NC(=O)NC3CCCCC3)ccc2O1`, for which the relative growth is inactive: 1.01.
Regarding `COc1ccc(NC(=O)N(C)C[C@@H]2OCc3cnnn3CCCC(=O)N([C@@H](C)CO)C[C@H]2C)c(OC)c1`, the relative growth is inactive: 1.01.
Turning to `Cc1ccc(S(=O)(=O)N(C)C[C@H]2Oc3ncc(Br)cc3C(=O)N([C@@H](C)CO)C[C@H]2C)cc1`, the relative growth is inactive: 0.998.
Turning to `COc1ccc(NC(=O)N(C)C[C@H]2Oc3ccc(NS(=O)(=O)c4c(C)noc4C)cc3CC(=O)N([C@@H](C)CO)C[C@H]2C)cc1`, the relative growth was inactive: 0.967.
Consider `Cc1noc(C)c1NC(=O)N(C)C[C@H]1OCCCC[C@@H](C)Oc2ccc(NS(=O)(=O)c3ccccc3)cc2C(=O)N([C@@H](C)CO)C[C@H]1C`, for which the relative growth was inactive: 1.01.
For the molecule `CC(C)NC(=O)N(C)C[C@H]1Oc2ccc(NS(=O)(=O)c3cccs3)cc2CC(=O)N([C@H](C)CO)C[C@@H]1C`, the relative growth was inactive: 0.991.
Regarding `CC(C)(C)NC(=O)C1CN(Cc2cccnc2)CCN1CC(O)CC(Cc1ccccc1)C(=O)NC1c2ccccc2CC1O` (stereo not drawn), the relative growth is inactive: 0.915.
In the case of `O=C(C[C@@H]1CC[C@@H]2[C@H](COC[C@H](O)CN2C(=O)Nc2ccc(C(F)(F)F)cc2)O1)NCc1ccncn1`, the relative growth was inactive: 0.977.
In the case of `COc1cccc(S(=O)(=O)N2C[C@@H](O)COC[C@@H]3O[C@H](CC(=O)N4CCOCC4)CC[C@H]32)c1`, the relative growth is inactive: 1.02.
As for `N[C@@H](CSCC(=O)O)C(=O)O`, the relative growth was inactive: 0.983.
With `C[C@@H]1CN([C@@H](C)CO)C(=O)c2cccc(NC(=O)NC3CCCCC3)c2O[C@H]1CN(C)S(=O)(=O)c1cn(C)cn1` the figure was inactive: 1.01; with `CC(C(=O)O)c1cccc(C(=O)c2ccccc2)c1` (stereo not drawn), inactive: 1.01; with `COc1nc(N)nc2nc[nH]c12`, inactive: 0.993.
Consider `CC(C)NC(=O)Nc1ccc2c(c1)C(=O)N([C@@H](C)CO)C[C@H](C)[C@H](CN(C)S(=O)(=O)c1cn(C)cn1)O2`, for which the relative growth was inactive: 1.01.
With `C[C@H](CO)N1C[C@H](C)[C@@H](CN(C)S(=O)(=O)c2ccc(Cl)cc2)Oc2ccc(NC(=O)Cn3cnnn3)cc2CC1=O`, the relative growth was inactive: 1.01.
With `COc1ccccc1C#Cc1cnc2c(c1)C(=O)N([C@@H](C)CO)C[C@@H](C)[C@@H](CN(C)C(=O)c1ccc3c(c1)OCO3)O2`, the relative growth was inactive: 1.03.
With `Cc1ccc(S(=O)(=O)N(C)C[C@@H]2OCCCC[C@@H](C)Oc3ccc(NS(=O)(=O)c4ccc(F)cc4)cc3C(=O)N([C@@H](C)CO)C[C@H]2C)cc1` the figure was inactive: 1.02; with `C[C@@H]1CN([C@@H](C)CO)C(=O)c2cc(-c3ccc(C(=O)N(C)C)cc3)cnc2O[C@@H]1CN(C)C(=O)c1cccnc1`, inactive: 0.998.
`Cc1noc(C)c1NC(=O)N(C)C[C@H]1Oc2ccc(NC(=O)C3CC3)cc2CC(=O)N([C@H](C)CO)C[C@@H]1C`: the relative growth is inactive: 0.993.
Turning to `CC(=O)O[C@@H]1[C@@H]2C[C@@H]([C@H]1OC(C)=O)[C@@H]1C(=O)N(C)C(=O)[C@@H]21`, the relative growth was inactive: 0.936.
Turning to `COc1ccc(NC(=O)Nc2ccc3c(c2)[C@@H]2C[C@H](CC(=O)N4CCN(C)CC4)O[C@@H](CO)[C@@H]2O3)cc1`, the relative growth is inactive: 1.
Regarding `C[C@H](CO)N1C[C@H](C)[C@H](CN(C)Cc2ccc(Oc3ccccc3)cc2)Oc2ccc(NC(=O)Nc3cccc4ccccc34)cc2CC1=O`, the relative growth is inactive: 1.02.
Regarding `CCS(=O)(=O)N1CC[C@]2(CC1)CN([C@H](CO)c1c2c2ccc(cc2n1C)OC)S(=O)(=O)c1ccccc1`, the relative growth was inactive: 0.996.
Under `C[C@H]1CN([C@@H](C)CO)C(=O)CCCn2cc(nn2)CO[C@H]1CN(C)C(=O)C1CC1` stands inactive: 1.02; under `O=C(CO)N1C[C@H]2C[C@@H]1C[C@@H]2Oc1cccnc1`, inactive: 1.04.
With `COc1cccc(S(=O)(=O)N2C[C@H](O)COC[C@@H]3O[C@@H](CC(=O)N4CCOCC4)CC[C@H]32)c1` the figure was inactive: 0.982.
With `O=C(C[C@H]1C[C@@H]2c3cc(NS(=O)(=O)c4ccc(F)cc4)ccc3O[C@@H]2[C@H](CO)O1)NCCc1ccccc1` the figure was inactive: 1.02; with `C[C@@H]1CN([C@@H](C)CO)C(=O)c2cccc(NC(=O)c3ccc(-c4nccs4)cc3)c2O[C@H]1CN(C)C(=O)Nc1ccc2c(c1)OCO2`, inactive: 0.99.
Take `CCN(CCCCOC(=O)c1ccc(OC)c(OC)c1)C(C)Cc1ccc(OC)cc1.Cl` (stereo not drawn): the relative growth is inactive: 0.95.
In the case of `COC(=O)c1sc2ncn(N)c(=O)c2c1C`, the relative growth was inactive: 0.999.
With `O=C(C[C@H]1C[C@H]2c3cc(NS(=O)(=O)c4ccccc4)ccc3O[C@H]2[C@H](CO)O1)NC1CCCCC1` the figure was inactive: 0.976; with `COc1ccc(S(=O)(=O)Nc2ccc3c(c2)CC(=O)N([C@H](C)CO)C[C@@H](C)[C@@H](CN(C)Cc2ccncc2)O3)cc1`, inactive: 0.992; with `C[C@@H]1CN([C@H](C)CO)C(=O)c2cc(NC(=O)CCC(F)(F)F)ccc2O[C@@H]1CN(C)C(=O)Nc1cccc2ccccc12`, inactive: 0.985.
Turning to `C=CCCC(=O)N(C)[C@H](C)[C@H](OC(=O)[C@@H]1[C@@H]2C=C[C@]3(O2)[C@H](C(=O)N(CC=C)Cc2ccccc2)N(Cc2ccc(OC)cc2)C(=O)[C@@H]13)c1ccccc1`, the relative growth is inactive: 1.03.
For `Cc1cc(C(=O)Nc2cccc3c2O[C@@H](CN(C)C(=O)Nc2ccc4c(c2)OCO4)[C@@H](C)CN([C@@H](C)CO)C3=O)n(C)n1`, the relative growth was inactive: 0.987.
For the molecule `CO[C@H](CCO)[C@H](O)c1ccc(O)c(F)c1`, the relative growth is inactive: 0.93.
With `Cc1noc(C)c1NC(=O)Nc1cccc2c1O[C@@H](CN(C)Cc1ccc(Oc3ccccc3)cc1)[C@@H](C)CN([C@@H](C)CO)C2=O` the figure was inactive: 0.982.
Under `C[C@H]1CN([C@@H](C)CO)S(=O)(=O)c2ccc(C#Cc3ccc(F)cc3)cc2O[C@@H]1CN(C)S(C)(=O)=O` stands inactive: 1.02.
`COc1ccc(S(=O)(=O)Nc2ccc3c(c2)C(=O)N([C@@H](C)CO)C[C@H](C)[C@@H](CN(C)Cc2ccc(Cl)c(Cl)c2)O3)cc1`: the relative growth is inactive: 0.97.
